Laboratory results as given in the supplement of paper PMC11417369.
± gives the standard deviation of the averaged measurements. Some of the results follow.

Test system: PfAP2-G AP2 domain (GST-tagged)
Assay: gcPBM binding intensity (ln(normalized median fluorescence intensity)); higher = stronger DNA binding
Outline: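 GST-tagged P. falciparum DNA-binding domains, expressed in E. coli (about 25 μg on average), were applied for 1 h to an Agilent 4 × 180k array of primer-extended double-stranded 36-bp intergenic genomic probes plus negative controls. The binding buffer was 1× PBS with 1% milk, 0.2 mg/ml BSA, 0.5% salmon testes DNA and 0.03% Triton X-100. Bound protein was detected with Alexa488 anti-GST antibody and scanned at 488 nm. Binding intensity is the highest Masliner-normalised natural-log median intensity across replicate spots of either probe orientation.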

Sequence	gcPBM binding intensity (ln)
ATCTATATAATATATACACACAAATATACAAAAAAA [CACACA_site1013]	10 ± 0.11
TACATGCATTTCTCATGTACATAATTTTCCCATATT [XGTACX_site5158]	11 ± 0.47
ATAAATTAAAGACACACACACATCTGGATACCCCTA [CACACA_site7546]	11.1 ± 0.65
TTATATTATATATATAGTACACATGTAATATTTCAA [XGTACX_site1791]	11.1 ± 0.76
TATTGTAGAGGCAAAAGTACACATTTAATAATTTCC [XGTACX_site1151]	11.4 ± 0.73
TAAATATGCTCACAGATGCACTAACACATTTTTATA [GTGCAC_site9997]	10.01 ± 0.035
TTTTATACATAAATGTGTACGTATATATAATGAATT [XGTACX_site2762]	11.7 ± 1
GTTTATATTAAACAAACACACACATATATATATATA [CACACA_site8749]	10.1 ± 0.39
TCCTTATATGGGCACACACACACAATAAAATGAAAA [CACACA_site1030]	10.8 ± 0.66
AAAATTAGGTATATATGTACATATATAAATATATAT [XGTACX_site3555]	11.1 ± 0.65
AACCATTATTTCTCTACACACATTTATGTCATTTAC [CACACA_site1499]	10.09 ± 0.021
TATGCTACAAGGAGAACACACAATTGCCACTTTTGG [CACACA_site2166]	10.07 ± 0.028
TTTTTTAATTAGTACAAACACACATATACAGACAAA [CACACA_site2564]	11.2 ± 0.79
TGTTATATATGTAATTGTACACTTATACAAAATTAT [XGTACX_site6350]	11.2 ± 0.72
AATAGAACTATTACACGTACAGAACATGAATTAGTT [XGTACX_site7518]	11.4 ± 0.91
ATTTAGAATGCGTATACACACATATATAGATTTGCT [CACACA_site626]	10.09 ± 0.078
AAAAAAATTAGACACACACACACATATAAATATGTA [CACACA_site6618]	9.94 ± 0.042
CAAAATATAACATCATCACACACATATACTTTATAT [CACACA_site8292]	9.88 ± 0.13
ATTTAAAAATAAAGAACACACATATGTAAAATATAT [CACACA_site3754]	10.03 ± 0.071
TATGTTTGTGTATATATTTATTTTTATGTAATTATA [GTGCAC_negctrl_site219]	9.91 ± 0.26
TTATTAATATATAAATGTACATATACAATACATAAA [XGTACX_site5571]	11 ± 0.61
TATTTAAGAGTATGAACACACATCATACACATATAA [CACACA_site3617]	10.11 ± 0.071

Sequence	gcPBM binding intensity (ln)
ATTCAAATATTAAAAAGTACAAAAAAAAAACAAAAA [XGTACX_site1174]	11.2 ± 0.75
ATATAATTATTGATATGTACATATTTGTTCTAGTTT [XGTACX_site3012]	11.1 ± 0.64
ACATTAAAATATGATTGTACATTTTATTATATTATA [XGTACX_site912]	10.8 ± 0.4
ACAACACTATATTACACATGCATTAAGAGAGTGAAC [TGCATGCA_site124]	10.1 ± 0.11
ACCTGTTCATATGATCGTACACGTCAGTTTATATGA [XGTACX_site3869]	11.1 ± 0.49
TATTTTGAGAATAAATGTACGAATTTTATATTTAAA [XGTACX_site1336]	11 ± 0.77
CTATCATATTTATGCACACAAAAATAATTAATTCGT [CACACA_site2614]	10.2 ± 0.23
TACAAAATGGGGAACACACACATATATAAATAAATA [CACACA_site7751]	10.6 ± 0.49
TAAAATAAAAATTAAAGTACATATGTATATATATAT [XGTACX_site3984]	11.1 ± 0.88
AATCCTTACGGACACACACACACGAATAAATAAAAA [CACACA_site4422]	11.2 ± 0.92
GAGTATTCAAGTATTAGTACATATTATATAATAAAT [XGTACX_site7630]	10.9 ± 0.61
ATAATTATTTTAGAAACACACAAATTAGAAAAAACA [CACACA_site3636]	10.2 ± 0.19
AGAGGATCATAGTTATGTACACATATTTAACATAAA [XGTACX_site7232]	11.5 ± 0.91
TCTTCATTTTTATGTGCATGTAAAATTTTTTTTTTT [TGCATGCA_site963]	10.2 ± 0.19
GACAATAAAAAGAAAAGTACATATATAAATTAACCA [XGTACX_site7858]	11.3 ± 0.88
AAATATAAAAGTATATGTACATATATATATATATAT [XGTACX_site7446]	11.2 ± 0.64
AATAAATAGATATATACACACATATATCTATAATAT [CACACA_site6557]	9.74 ± 0.11
CATATTCCCCCCCACACACACACACCCATACATACC [CACACA_site2303]	11.7 ± 0.71
CGTGTGTCCCCCTTAATCATCCAATCGTTCATTTTG [CACACA_negctrl_site1008]	11.4 ± 1
TATATAATGGTAAAAACACACAAATATGAAGATGTT [CACACA_site722]	9.87 ± 0.16
ATATTTATTATATAATGTACAAAAAAAAAAAAAAAA [XGTACX_site629]	10.6 ± 0.62
TTTTTTTCTAATTATGCACACATATCAAAATATTCA [CACACA_site8886]	10.1 ± 0.25

Sequence	gcPBM binding intensity (ln)
AATATAAGTTTATTAGTGCACAGATAAATATATATT [GTGCAC_site9784]	10.3 ± 0.3
ATGTATGTTTTTTTTTTATTGTTCAAAAAGTTGAAG [CACACA_negctrl_site1276]	10.2 ± 0.18
ATTTTTTATATTAATTGTACATTGTATATATATATA [XGTACX_site8702]	10.7 ± 0.26
TTACTTAAATATAAGTGTCCTCAAAAAAAAAAAAAA [XGTACX_site460]	11.1 ± 0.93
TAGCGCATAAAAAAAAAAAAATATATACTAATAAAT [GTGCAC_negctrl_site276]	9.57 ± 0.071
AAATATATTATTATCTTATCAATTAAAAGAATAAAC [CACACA_negctrl_site779]	9.91 ± 0.27
TTTTTATAAAAATTATTAAAAAAATTATTTATAGCT [CACACA_negctrl_site265]	9.54 ± 0.12
AAAAACTAATCTTTAACATGCAACCGTTTATACATA [TGCATGCA_site363]	9.875 ± 0.035
TTTTTTTGAACATATACACACTCTAAACTTATACAT [CACACA_site3917]	10.12 ± 0.092
AAAGGTTTATATGATACACACATAAGTGATCAGGTT [CACACA_site190]	10.05 ± 0.021
TGAGTTACATACTAATGTACACAACAAAAAAAAAAA [XGTACX_site2390]	11.2 ± 0.79
TAATTTATGACACGCGCACACATATATATATAGTAA [CACACA_site4249]	10.6 ± 0.42
GGTATACGCAAGTATACACACATATATATATATATA [CACACA_site3240]	10.1 ± 0.28
AATAAAATAAAATACACACATACATACATACAAATG [CACACA_site2438]	10.2 ± 0.12
AAAAATTATGGACACACACACATATATATATATATT [CACACA_site4717]	11.2 ± 0.82
TACCAATGCATAACGGTGCAAAAAAATAAGGAATAA	10.1 ± 0.12
ATGCATATAACTACGTGTACAAATATACACAAATAC [XGTACX_site8811]	11.4 ± 0.86
ACTGTAAAAGGATTTACACACATATTTACATTTACA [CACACA_site519]	10.01 ± 0.021
ACCCATAAAAAGGATACACACACACCCACCCATATA [CACACA_site8205]	10.6 ± 0.34
ATATATATATTTGTATGTACATATATATATTCGTAT [XGTACX_site1640]	11.1 ± 0.51
TTTCCTTATTAAAACACACAAATACATTATTTAATC [CACACA_site7080]	9.875 ± 0.035
GAGCATTACCCATATACACACATATATATAAACCTA [CACACA_site2737]	10.2 ± 0.13

Sequence	gcPBM binding intensity (ln)
ACATTTTTTTCATATCGTACATATTATAATATTTTC [XGTACX_site6524]	10.9 ± 0.52
AAAAAAAAAAAAGGAGGTACACAATTTTATATATGC [XGTACX_site5296]	11.3 ± 0.76
ACAAGTCAGGCAAAAACATGCATTATTTGAACATTA [TGCATGCA_site864]	9.95 ± 0.24
GTACGATAAAAAATTGGACAAAAAAAAAAAAAAAAT [XGTACX_negctrl_site158]	10.8 ± 0.38
ATTTCATAAATTAAACGTACATAATACACACACATG [XGTACX_site4155]	11.5 ± 0.67
TAAAACAACAAAGAAAATGAAAAAGTAAAAACATAT [CACACA_negctrl_site1049]	9.91 ± 0.15
TTTTGTTATTTTTTAGTGCATATAAAGGTTGTTAAG	10.2 ± 0.24
TTTTGCAATAATGTTGCACACTAAATAGTCATCTAT [CACACA_site4304]	10.08 ± 0.071
TTGGATAAAAAATATGTACACACATATAGATATCTA [CACACA_site8862]	11.4 ± 0.87
TGATAAAATGGGGAAATTCATTATATCATATCTTGG [CACACA_negctrl_site789]	9.6 ± 0.28
ATTATATTAAAATACACACCCAAATATTAAAAAGAT [CACACA_site5613]	10.4 ± 0.19
TTTGAAATATTAAATGCATGTTAAAACATAAAAATG [TGCATGCA_site680]	9.98 ± 0.13
TTTCTTCTTCTATTGTGTACGTAAAAAAAAAAAAAA [XGTACX_site772]	11.6 ± 0.95
GGTAATTTCCTTTTTTGTACTCATAGAAGGATAATA [XGTACX_site89]	11.4 ± 0.91
ATTATTATATTTATATGTACATAGAAAAAATTAAAT [XGTACX_site2058]	11.3 ± 0.72
AAAGTGGCCATATATTTTTTTTTTTTTTTCCTTATT [CACACA_negctrl_site485]	10.3 ± 0.25
AAAAATAAAGGATATACACACTAATTATATATATAT [CACACA_site5550]	9.855 ± 0.049
AATATTTATAAAGACACACAAACAAAAAGGATAAAA [CACACA_site2985]	10.4 ± 0.2
TCATTTAAGTAGACGCGTACGGAAATTACGAATCCT [XGTACX_site144]	11.1 ± 0.69
TCAGATATATATATATAAATATATATTTTGAAATGT [CACACA_negctrl_site686]	9.58 ± 0.085
TAGTATCCAAGAAAAAGTACTTATTTTAATTTTTTA [XGTACX_site6243]	11.2 ± 0.83
AGTTTGTTTTTTTTTTTTTTTTCCTGTCACAAACAA [CACACA_negctrl_site1093]	10.2 ± 0.26
